Experimental data from the supplement of paper PMC12217912.
The list shows a part of the results. The full chains were built here from the parent and the listed change. Values near 0.05 are background.

B1: TEV protease; numbered along this chain (parent)
chain: MGESLFKGPRDYNPISSSICHLTNESDGHTTSLYGIGFGPFIITNKHLFRRNNGTLVVQSLHGVFKVKDTTTLQQHLVDGRDMIIIRMPKDFPPFPQKLKFREPQREERICLVTTNFQTKSMSSMVSDTSCTFPSGDGIFWKHWIQTKDGQCGSPLVSTRDGFIVGIHSASNFTNTNNYFTSVPKNFMELLTNQEAQQWVSGWRLNADSVLWGGHKVFMVKPEEPFQPVKEATQL

Variants of: B1
Assay: raw area under fraction-flipped curve 0-4 h after induction (AUC4h, not background-subtracted), DNA-recorder readout of cleavage of the substrate (dimensionless); higher = more cleavage of the substrate by the protease variant
Settings: temperature: 34 °C; time window: 0-4 h after rhamnose induction
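Also: Bxb1 expression induced with 0.2% (w/v) L-rhamnose at OD600 near 0.5, cultures sampled hourly, flipped fraction per protease–substrate barcode pair counted by paired-end Illumina sequencing.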

Variant	area with substrate ENLYDQS	area with substrate ENLYEQS	area with substrate ENLYGQS	area with substrate ENLYHQS	area with substrate ENLYIQS	area with substrate ENLYKQS	area with substrate ENLYMQS	area with substrate ENLYNQS	area with substrate ENLYPQS	area with substrate ENLYQQS
R160G	0.0676	0.0764	0.0727	0.0755	0.117	0.0655	0.0779	0.0667	0.0592	0.055
R160M	0.0579	–	0.0577	–	–	–	–	–	0.0715	–
I164F	0.045	–	0.0468	–	–	–	0.0257	–	–	–
V165N	0.0608	0.0477	0.0741	–	–	0.0642	–	–	–	–
I167D	0.0458	0.0552	0.0529	0.0511	–	0.0502	0.0646	0.0582	0.0643	0.0372
I167E	0.0517	0.0376	–	–	–	0.0472	0.0543	–	0.0618	–
H168S	0.0523	0.0574	0.0612	0.0479	–	0.0282	–	0.068	–	–
T174Y	0.0537	0.0707	–	0.0917	0.0915	0.0642	–	0.0687	–	0.0507
N177Y	0.0489	–	–	–	–	–	0.0641	0.0571	–	–
P184K	0.0579	0.0571	0.0636	–	0.0904	0.0746	0.0674	0.0643	–	–
P184R	0.0529	0.0661	–	–	0.0714	0.0459	–	–	0.0346	–
T192K	0.0575	0.0658	0.05	0.0658	–	0.0734	0.0652	0.0776	–	–
T192L	0.0629	0.0656	0.0613	0.0706	–	0.042	0.0751	0.0703	–	0.0615
Q194G	0.0514	0.0732	0.0452	0.0677	0.123	0.0553	0.0799	–	0.0731	0.0756
Q198F	0.053	0.0684	0.0489	0.0678	0.0815	0.0536	0.0768	0.0658	0.0713	0.0694
V200K	0.0904	0.047	–	–	–	–	0.0835	0.0606	–	–
G202K	0.07	0.0543	–	–	0.0579	–	0.0632	–	–	–
A207C	0.0601	–	0.0544	0.0832	0.117	–	0.0858	0.103	0.0648	0.058

Variant	area with substrate ENLYDQS	area with substrate ENLYEQS	area with substrate ENLYGQS	area with substrate ENLYHQS	area with substrate ENLYIQS	area with substrate ENLYKQS	area with substrate ENLYMQS	area with substrate ENLYNQS	area with substrate ENLYPQS	area with substrate ENLYQQS
D208H	0.0644	0.0601	0.0722	0.0544	0.0707	0.0539	0.057	0.0693	–	0.0651
D208I	0.0604	0.061	0.0757	0.0668	0.0734	0.0428	0.0715	0.0335	0.0605	0.0727
D208M	0.0612	0.0541	0.0697	0.0711	0.0778	0.0686	0.0578	0.0607	0.0718	0.0652
D208R	0.0668	0.0542	–	0.0561	0.0656	0.0665	0.0612	0.0145	0.0729	0.0663
S209I	0.0633	–	–	–	–	–	–	–	0.0521	–
V210Y	0.0674	0.0658	0.0734	0.0761	0.11	0.0623	0.0793	0.0615	0.0781	0.0637
G214C	0.0676	–	0.0466	–	–	–	–	–	–	–
H215A	0.0728	–	–	–	–	–	0.0573	–	–	0.0603
K216M	0.0477	–	0.0505	–	0.103	–	0.0925	0.0492	0.0825	–
K216T	0.0641	0.0635	–	0.0598	0.0938	0.0745	0.0718	–	–	0.0572
M219F	0.0797	0.0745	0.0794	0.0683	0.11	0.0268	0.0698	0.0909	0.0829	0.0679
E223Q	0.0592	0.0684	–	–	–	–	0.0868	–	–	0.0511
Q234G	0.0635	–	–	0.0577	–	0.0581	–	0.0919	–	0.0578
L235H	0.0653	–	0.0675	0.0694	0.142	0.0565	0.0747	–	0.064	0.0502
L5R	–	0.075	–	0.06	0.131	0.0659	–	–	0.0648	0.0546
G8I	–	0.0737	–	–	–	0.0601	0.083	0.0744	–	–
G8M	–	0.0767	0.0669	0.0736	0.0933	0.0398	–	0.0438	–	–

Same assay, conditions: temperature: 34 °C; time window: 0-4 h after rhamnose induction

Variant	area with substrate ENLYRQS	area with substrate ENLYSQS	area with substrate ENLYTQS	area with substrate ENLYWQS	area with substrate ENLYVQS	area with substrate ENLYYQS	area with substrate ENLYLQS
R160G	0.0552	0.0647	0.101	0.0783	–	–	–
R160M	–	–	–	–	0.108	–	–
I164F	–	0.024	–	–	–	–	–
V165N	0.0428	0.051	0.0626	–	–	–	–
I167D	0.0511	0.0241	0.0505	–	0.0403	–	–
I167E	–	0.0575	–	–	–	0.0634	–
H168S	0.0699	0.0605	–	–	–	0.0746	–
T174Y	0.0786	0.0695	–	–	0.0983	–	–
N177Y	–	0.0527	–	0.0491	0.0675	–	–
P184K	0.0608	0.0563	–	–	0.0645	–	–
P184R	0.0462	–	0.063	–	–	–	–
T192K	–	–	–	0.0728	0.0726	0.0584	0.0684
T192L	0.0575	0.081	0.0715	–	0.069	0.068	0.078
Q194G	0.0718	0.0758	–	0.0682	0.0947	–	–
Q198F	0.0649	0.0638	–	0.0807	0.108	0.0671	0.0709
V200K	–	–	0.0716	–	–	–	–
G202K	–	–	–	0.0695	–	–	–

Variant	area with substrate ENLYRQS	area with substrate ENLYSQS	area with substrate ENLYTQS	area with substrate ENLYWQS	area with substrate ENLYVQS	area with substrate ENLYYQS	area with substrate ENLYLQS
A207C	–	0.0795	0.0807	–	–	0.0543	–
D208I	0.0495	0.0594	–	0.0683	0.0735	0.0517	–
D208M	–	0.0615	0.0688	–	0.0678	–	0.0696
D208R	–	–	0.0602	0.0663	0.1	0.0581	0.0814
V210Y	0.0859	0.0763	–	–	0.0953	0.0448	0.0688
G214C	–	–	–	0.105	–	–	0.0663
H215A	0.0647	0.0502	0.0691	0.0586	0.0633	–	–
K216M	–	0.0765	–	0.0784	0.121	0.0518	–
K216T	–	0.064	0.0676	0.0731	0.11	0.0495	–
M219F	0.0596	–	–	0.0926	–	0.0704	–
E223Q	–	0.0773	–	0.0966	0.0932	0.0875	–
Q234G	–	0.0691	–	–	0.139	0.0732	–
L235H	–	–	–	–	0.0742	0.0612	–
L5R	–	–	–	–	0.148	–	0.0836
G8I	–	0.0845	–	–	–	–	–
G8M	0.0217	0.0679	–	0.0819	–	–	–
